According to paper PMC3784504:
Results are given in words; binding and its absence hold for the method and conditions named. For some of these results: In cells and extracts the contact can be indirect. Some binding calls cover weakened binding; strength is not graded here. Tags and fused reporters may be left off the sequences shown.

Chains of the proteins cited; added tags and fusions are not shown.
UniProt P23696: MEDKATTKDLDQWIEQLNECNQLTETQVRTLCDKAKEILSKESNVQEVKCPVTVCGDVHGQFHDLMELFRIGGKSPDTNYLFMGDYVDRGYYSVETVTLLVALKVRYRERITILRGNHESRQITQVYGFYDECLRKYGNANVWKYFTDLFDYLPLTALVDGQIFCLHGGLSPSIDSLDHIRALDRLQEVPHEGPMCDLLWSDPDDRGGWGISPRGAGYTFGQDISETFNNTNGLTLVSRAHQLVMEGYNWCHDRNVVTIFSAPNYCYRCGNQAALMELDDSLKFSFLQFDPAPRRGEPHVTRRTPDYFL

How the values were obtained:
[1] = molecular target: T1, recombinant HA-tagged NAP1 (Drosophila) (UniProt Q9W1G7); assay: pull-down; HA-NAP1 held on protein A beads with anti-HA antibodies; [35S]methionine-labelled in vitro translated proteins added; washes with 600 mM KCl, 0.1% NP40; autoradiography; only the target purified
T1 sequence: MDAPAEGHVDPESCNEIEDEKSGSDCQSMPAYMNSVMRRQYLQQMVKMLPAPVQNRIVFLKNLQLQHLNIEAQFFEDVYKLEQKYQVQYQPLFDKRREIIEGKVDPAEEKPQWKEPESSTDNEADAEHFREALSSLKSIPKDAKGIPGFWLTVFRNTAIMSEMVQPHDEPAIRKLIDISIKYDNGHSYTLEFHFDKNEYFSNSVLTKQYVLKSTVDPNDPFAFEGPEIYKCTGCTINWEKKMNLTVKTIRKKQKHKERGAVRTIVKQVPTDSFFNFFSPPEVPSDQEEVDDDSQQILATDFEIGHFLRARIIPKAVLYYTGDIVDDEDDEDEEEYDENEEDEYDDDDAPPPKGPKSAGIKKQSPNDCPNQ

[2] = molecular target: T2, histone chaperone NAP1 (Drosophila (endogenous in embryos and S2 cells)) (UniProt Q9W1G7); assay: co-IP; IP of SA, NAP1 or PP2A from Drosophila embryo nuclear extract; washes with 600 mM KCl, 0.1% NP40; immunoblot; mock IP with pre-immune serum
T2 sequence: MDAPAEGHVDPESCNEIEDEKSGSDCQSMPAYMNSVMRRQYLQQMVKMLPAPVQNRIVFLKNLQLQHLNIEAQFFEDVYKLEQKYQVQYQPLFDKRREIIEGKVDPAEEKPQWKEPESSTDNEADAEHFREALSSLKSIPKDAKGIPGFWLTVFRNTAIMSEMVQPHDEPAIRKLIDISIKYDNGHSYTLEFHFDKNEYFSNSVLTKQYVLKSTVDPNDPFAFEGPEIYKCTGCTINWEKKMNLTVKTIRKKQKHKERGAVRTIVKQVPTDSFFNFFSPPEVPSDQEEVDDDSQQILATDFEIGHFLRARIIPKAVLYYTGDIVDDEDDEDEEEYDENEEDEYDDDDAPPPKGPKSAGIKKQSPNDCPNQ

[3] = molecular target: T2, histone chaperone NAP1 (Drosophila (endogenous in embryos and S2 cells)); assay: co-IP; IPs of NAP1 and SA from pooled high molecular weight S-300 fractions 12-14 (about 1.5 MDa) of embryo nuclear extract; immunoblot
[4] = molecular target: T2, histone chaperone NAP1 (Drosophila (endogenous in embryos and S2 cells)); assay: SEC; Sephacryl S-300 of the POROS-heparin 0.4 M KCl fraction of embryo nuclear extract, HEMG/100 pH 7.6; fractions immunoblotted

In the case of “in vitro translated PP2A catalytic subunit (from UniProt P23696 1-309) (enzyme)”, the binding [1] is reported as “no binding”.

B1: cohesin subunit SMC1 (protein, UniProt Q9VCD8 1-1238)
chain: MTEEDDDVAQRVATAPVRKPDDETAFLEYIEMENFKSYRGHIVVGPLKQFNAVIGPNGSGKSNFMDAISFVMGEKTSSLRVKRLNDLIHGSSIGKPVSRSCYVTAKFVLNEERHMDFQRAVIGGSSEYRINGESVSSSTYLNKLEKIGINVKAKNFLVFQGAVENIAMKTPKERTALFEEISGSGLLKDDYNRLKQEMIVAEEETQFTYQKKKGIAAERKEAKHEKMEADRYTRLQNEYNEKQVEYQLFRLFHVERDIRKFTSDLEVRQQEVKAVEQRKEAADEILREKKKDAGKITRDLAKIDQEIREFETQMNKRRPLYIKAKEKVTHCKKKLISLQKTLETAREADNAHQSDIRKLEKQLADVEALKKRFEDEIENESQRRGKSVNMEEGLVQEYDRLKQEAEATATQYRSELDSVNREQKSEQDTLDGETNRRASVEESFKKLTLQREEAVKRRDKLMDHIKSSQAALEEQNRIKDELRRDVGTSKEKIAEKQRELEDVRDQLGDAKSDKHEDARRKKKQEVVELFKKQVPGVYDRMINMCQPTHKRYNVAVTKVLGKFMEAIIVDTEKTARHCIQILKEQMLEVETFLPLDYLQVKPLKERLRNISDPRNVRLVFDVLKFEPQEIERAVLFATGNALVCETPEDAMKVAYEIDRSRFDALALDGTFYQKSGLISGGSHDLARKAKRWDEKHMAQLKMQKERLQEELKELVKKSRKQSELATVESQIKGLENRLKYSMVDLESSKKSISQYDNQLQQVQSQLDEFGPKILEIERRMQNREEHIQEIKENMNNVEDKVYASFCRRLGVKNIRQYEERELVMQQERARKRAEFEQQIDSINSQLDFEKQKDTKKNVERWERSVQDEEDALEGLKLAEARYLKEIDEDKEKMEKFKQDKQAKKQAVDDMEEDISKARKDVANLAKEIHNVGSHLSAVESKIEAKKNERQNILLQAKTDCIVVPLLRGSLDDAVRQSDPDVPSTSAAMENIIEVDYSSLPREYTKLKDDSAFKKTHEMLQKDLQSKLDVLERIQTPNMKALQKLDAVTEKVQSTNEEFENARKKAKRAKAAFERVKNERSSRFVACCQHISDAIDGIYKKLARNEAAQAYIGPDNPEEPYLDGINYNCVAPGKRFQPMNNLSGGEKTIAALALLFSTHSFHPAPFFVLDEIDAALDNTNIGKVASYIRDHTTNLQTIVISLKEEFYGHADALVGITPGEGDCLVSNVYIMDLTTFEDT
With B1 the binding [2] was “binds”, the binding [3] was “binds” and the binding [4] was “binds”.

B2: in vitro translated SMC1 (protein, UniProt Q9VCD8 1-1238)
chain: MTEEDDDVAQRVATAPVRKPDDETAFLEYIEMENFKSYRGHIVVGPLKQFNAVIGPNGSGKSNFMDAISFVMGEKTSSLRVKRLNDLIHGSSIGKPVSRSCYVTAKFVLNEERHMDFQRAVIGGSSEYRINGESVSSSTYLNKLEKIGINVKAKNFLVFQGAVENIAMKTPKERTALFEEISGSGLLKDDYNRLKQEMIVAEEETQFTYQKKKGIAAERKEAKHEKMEADRYTRLQNEYNEKQVEYQLFRLFHVERDIRKFTSDLEVRQQEVKAVEQRKEAADEILREKKKDAGKITRDLAKIDQEIREFETQMNKRRPLYIKAKEKVTHCKKKLISLQKTLETAREADNAHQSDIRKLEKQLADVEALKKRFEDEIENESQRRGKSVNMEEGLVQEYDRLKQEAEATATQYRSELDSVNREQKSEQDTLDGETNRRASVEESFKKLTLQREEAVKRRDKLMDHIKSSQAALEEQNRIKDELRRDVGTSKEKIAEKQRELEDVRDQLGDAKSDKHEDARRKKKQEVVELFKKQVPGVYDRMINMCQPTHKRYNVAVTKVLGKFMEAIIVDTEKTARHCIQILKEQMLEVETFLPLDYLQVKPLKERLRNISDPRNVRLVFDVLKFEPQEIERAVLFATGNALVCETPEDAMKVAYEIDRSRFDALALDGTFYQKSGLISGGSHDLARKAKRWDEKHMAQLKMQKERLQEELKELVKKSRKQSELATVESQIKGLENRLKYSMVDLESSKKSISQYDNQLQQVQSQLDEFGPKILEIERRMQNREEHIQEIKENMNNVEDKVYASFCRRLGVKNIRQYEERELVMQQERARKRAEFEQQIDSINSQLDFEKQKDTKKNVERWERSVQDEEDALEGLKLAEARYLKEIDEDKEKMEKFKQDKQAKKQAVDDMEEDISKARKDVANLAKEIHNVGSHLSAVESKIEAKKNERQNILLQAKTDCIVVPLLRGSLDDAVRQSDPDVPSTSAAMENIIEVDYSSLPREYTKLKDDSAFKKTHEMLQKDLQSKLDVLERIQTPNMKALQKLDAVTEKVQSTNEEFENARKKAKRAKAAFERVKNERSSRFVACCQHISDAIDGIYKKLARNEAAQAYIGPDNPEEPYLDGINYNCVAPGKRFQPMNNLSGGEKTIAALALLFSTHSFHPAPFFVLDEIDAALDNTNIGKVASYIRDHTTNLQTIVISLKEEFYGHADALVGITPGEGDCLVSNVYIMDLTTFEDT
modifications: [35S]methionine label
For B2, the binding [1] was “binds”.

B3: in vitro translated SMC3 (protein, UniProt Q9VXE9 1-1200)
chain: MHIKQIIIQGFKSYKDQTVVEPFDKRHNVVVGRNGSGKSNFFYAIQFVLSDEFTHLRPEQRQSLLHEGTGARVISAYVEIIFDNSDNRVPIDKEEIFLRRVIGAKKDQYFLNKKVVPRNEVVNLLESAGFSSSNPYYIVKQGKINQMATAADSYRLKLLREVAGTRVYDERKEESLNLLRETDSKVEKISEYLKTIEDRLQTLEEEKEELKEYQKWDKTRRTLEYIRYETELKDTKKALDELQLQRKSSSDKKKIYNIEIQKAQEKIKDVQKNLKEAKKKVQSTKEERSVLMTEQQQLLREKTKLDLTIVDLNDEVQGDNKSKERADQELKNLKVTIAEREKELDDVKPKYEAMKRKEEDCSRELQLKEQKRKELYAKQGRGSQFSSREDRDKWITNELKSISKQTRDKIAHHAKLVEDLKKDATSEKDLGQKIEEHSSELEQLRLQIDEHNKKYYELKKTKDQHQSMRNELWRKETQMTQQLQTHKEELSRADQALRSMAGKPILNGCDSVRKVLDSFVERGGQSAEIARAYYGPVIENFSCDKTIYTAVEVTAANRLFHHIVESEYEGTQILKEMNKLKLPGEVTFMPLNRLQVKIHDYPDDPDSIPMISKLKYDEQHDKALRYIFGKTLICRNLERATELAKSTGLDCVTLDGDQVSSKGSLTGGYFNTSRSRLEMQKKRTEYTSQIAEFEKKLSKLRNELKSTENNINSIVSEMQKTETKQGKSKDVFEKVQGEIRLMKEELVRIEQYRAPKERSLAQCKASLESMTSTKSSLEAELKQELMSTLSSQDQREIDQLNDDIRRLNQENKEAFTQRMQFEVRKNKLDNLLINNLFRRRDELIQALQEISVEDRKRKLNNCKTELVSAEKRIKKVNSDLEEIEKRVMEAVQLQKELQQELETHVRKEKEAEENLNKDSKQLEKWSTKENMLNEKIDECTEKIASLGAVPLVDPSYTRMSLKNIFKELEKANQHLKKYNHVNKKALDQFLSFSEQKEKLYRRKEELDIGDQKIHMLIQSLEMQKVEAIQFTFRQVAQNFTKVFKKLVPMGAGFLILKTKDNEGDEMEKEVENSDAFTGIGIRVSFTGVEAEMREMNQLSGGQKSLVALALIFSIQKCDPAPFYLFDEIDQALDAMHRKAVANMIHELSDTAQFITTTFRPELLENAHKFYGVRFRNKVSHIDCVTREEAKDFVEDDSTHA
modifications: [35S]methionine label
For B3, the binding [1] was “binds”.

B4: in vitro translated PP2A regulatory subunit PP2A-29B (protein, UniProt P36179 1-591)
chain: MAASDKSVDDSLYPIAVLIDELKNEDVQLRLNSIKKLSTIALALGEERTRSELIPFLTETIYDEDEVLLALADQLGNFTSLVGGPEFAMYLIPPLESLATVEETVVRDKAVESLRTVAAEHSAQDLEIHVVPTLQRLVSGDWFTSRTSACGLFSVCYPRVTQPVKAELRANFRKLCQDETPMVRRAAANKLGEFAKVVETEYLKSDLIPNFVQLAQDDQDSVRLLAVEACVSIAQLLPQDDVEHLVLPTLRQCASDSSWRVRYMVAEKFVDLQKAVGPEITRVDLVPAFQYLLKDAEAEVRAAVATKVKDFCANLDKVNQVQIILSSILPYVRDLVSDPNPHVKSALASVIMGLSPMLGAYQTVEQLLPLFLIQLKDECPEVRLNIISNLDCVNDVIGIQQLSQSLLPAIVELAEDSKWRVRLAIIEYMPALAGQLGQEFFDQKLRGLCMGWLNDHVYAIREAATLNMKKLVEQFGAPWAEQAIIPMILVMSRNKNYLHRMTCLFCLNVLAEVCGTDITTKLLLPTVLLLAADPVANVRFNVAKTLQKISPFLEASVIDAQVKPTLDKLNTDTDVDVKHFAAQAIAGIAAA
modifications: [35S]methionine label
In the case of B4, the binding [1] is reported as “no binding”.
